Reference: a compilation of properties of binary mixtures (doi:10.1016/j.molliq.2012.10.030)
The densities may have been worked out from excess volumes.

Experiment: xn = mol fraction of the nth substance listed
Conditions: 101 kPa

CNc1ccccc1 + CC[n+]1ccn(C)c1.F[B-](F)(F)F
mass density [kg/m3]
Conditions | 293.15 K | 298.15 K | 303.15 K | 308.15 K
x1 = 0.0712 | – | 1268.6 | 1265 | 1261
x1 = 0.0944 | – | 1264.8 | 1261.2 | –
x1 = 0.1175 | – | 1260.8 | 1257.2 | 1253.2
x1 = 0.1685 | 1255.8 | 1251.6 | 1248.1 | 1244.1
x1 = 0.2164 | – | – | 1239 | 1235
x1 = 0.2818 | 1233.3 | 1229.2 | – | 1221.6
x1 = 0.3365 | 1221.3 | – | 1213.6 | 1209.6
x1 = 0.3805 | 1211.1 | 1206.9 | 1203.3 | –
x1 = 0.4166 | 1202.2 | 1198.1 | 1194.4 | 1190.4
x1 = 0.4775 | 1186.3 | 1182.3 | 1178.6 | 1174.5
x1 = 0.5287 | 1172 | 1168 | 1164.2 | 1160.2
x1 = 0.5855 | 1154.9 | 1150.9 | 1147.2 | 1143.1
x1 = 0.6144 | 1145.7 | 1141.8 | 1138 | 1134
x1 = 0.6638 | 1129.3 | 1125.4 | 1121.5 | –
x1 = 0.7202 | 1109.2 | 1105.3 | 1101.5 | 1097.5
x1 = 0.7822 | 1085.5 | 1081.6 | 1077.6 | 1073.7
x1 = 0.8343 | 1064 | 1060.2 | 1056.2 | 1052.3
x1 = 0.8775 | 1045.2 | 1041.3 | 1037.4 | 1033.5

Cc1ccccc1N + CC[n+]1ccn(C)c1.F[B-](F)(F)F
mass density [kg/m3]
Conditions | 293.15 K | 298.15 K | 303.15 K | 308.15 K
x1 = 0.0684 | 1273.7 | 1270.4 | 1268 | 1264.4
x1 = 0.0786 | – | 1268.9 | – | 1263.1
x1 = 0.1243 | – | 1262 | 1260 | 1256.7
x1 = 0.1783 | – | 1253.2 | 1251.2 | 1247.9
x1 = 0.2255 | 1248 | 1244.9 | 1242.8 | –
x1 = 0.2781 | 1238.4 | 1235.1 | – | 1229.2
x1 = 0.3234 | 1229.6 | – | 1223.3 | 1219.8
x1 = 0.3712 | – | – | 1212.8 | 1209.1
x1 = 0.4096 | 1211 | – | 1203.8 | 1200.1
x1 = 0.4763 | 1195 | 1191.1 | – | 1183.5
x1 = 0.5242 | 1182.5 | 1178.5 | 1174.6 | 1170.8
x1 = 0.5781 | 1167.2 | 1163.4 | 1159.3 | 1155.6
x1 = 0.6254 | 1152.9 | – | 1145.1 | –
x1 = 0.6771 | 1135.9 | 1132.3 | 1128.5 | 1124.9
x1 = 0.7226 | 1119.9 | 1116.5 | 1112.8 | 1109.3
x1 = 0.7683 | 1102.8 | 1099.6 | 1096 | 1092.7
x1 = 0.8276 | 1078.9 | 1075.8 | 1072.5 | 1069.3
x1 = 0.8687 | 1061.3 | 1058.2 | 1054.9 | 1051.6

Nc1ccccc1 + CC[n+]1ccn(C)c1.F[B-](F)(F)F
mass density [kg/m3]
Conditions | 293.15 K | 298.15 K | 303.15 K | 308.15 K
x1 = 0.0697 | – | 1272.5 | 1269.2 | –
x1 = 0.0803 | 1274.4 | 1271.3 | – | 1264.6
x1 = 0.1286 | 1268.6 | 1265.8 | 1262.6 | 1259.3
x1 = 0.1717 | – | 1260.5 | – | 1254.1
x1 = 0.2251 | 1256.4 | 1253.5 | 1250.3 | 1247
x1 = 0.2724 | 1249.9 | – | 1243.4 | 1240.1
x1 = 0.3253 | 1241.9 | – | 1235 | 1231.6
x1 = 0.3805 | 1232.7 | – | 1225.4 | 1221.9
x1 = 0.4288 | 1223.7 | 1219.7 | 1216.2 | 1212.5
x1 = 0.4681 | 1215.7 | 1211.6 | – | 1204.2
x1 = 0.5287 | 1202 | 1197.8 | 1194.2 | 1190.2
x1 = 0.5755 | – | 1186 | – | 1178.5
x1 = 0.6258 | – | 1172.1 | 1168.5 | 1164.5
x1 = 0.6802 | – | 1155.5 | 1152 | –
x1 = 0.7231 | 1144.7 | 1141.1 | – | 1133.8
x1 = 0.7785 | 1124.2 | 1120.8 | 1117.6 | 1113.7
x1 = 0.8257 | 1105.1 | 1102 | 1098.8 | 1094.8
x1 = 0.8697 | – | – | 1079.6 | –
